Source: article PMC4336329 (PLoS ONE, 2015)
The campaign covered roughly 310,000 compounds. About 14,000 (4.5%) showed an effect of 50% or more. Effects have a minus sign here. Some of the results follow.

Each molecule was assayed against human ether-à-go-go-related gene (hERG) potassium channel (human, UniProt Q12809) (assay: primary screen, population patch clamp on CHO cells stably expressing hERG).
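Note: peak tail current of the secondary pulse compared with the same well before compound.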

human ether-à-go-go-related gene (hERG) potassium channel, sequence (Q12809 whole entry, looked up): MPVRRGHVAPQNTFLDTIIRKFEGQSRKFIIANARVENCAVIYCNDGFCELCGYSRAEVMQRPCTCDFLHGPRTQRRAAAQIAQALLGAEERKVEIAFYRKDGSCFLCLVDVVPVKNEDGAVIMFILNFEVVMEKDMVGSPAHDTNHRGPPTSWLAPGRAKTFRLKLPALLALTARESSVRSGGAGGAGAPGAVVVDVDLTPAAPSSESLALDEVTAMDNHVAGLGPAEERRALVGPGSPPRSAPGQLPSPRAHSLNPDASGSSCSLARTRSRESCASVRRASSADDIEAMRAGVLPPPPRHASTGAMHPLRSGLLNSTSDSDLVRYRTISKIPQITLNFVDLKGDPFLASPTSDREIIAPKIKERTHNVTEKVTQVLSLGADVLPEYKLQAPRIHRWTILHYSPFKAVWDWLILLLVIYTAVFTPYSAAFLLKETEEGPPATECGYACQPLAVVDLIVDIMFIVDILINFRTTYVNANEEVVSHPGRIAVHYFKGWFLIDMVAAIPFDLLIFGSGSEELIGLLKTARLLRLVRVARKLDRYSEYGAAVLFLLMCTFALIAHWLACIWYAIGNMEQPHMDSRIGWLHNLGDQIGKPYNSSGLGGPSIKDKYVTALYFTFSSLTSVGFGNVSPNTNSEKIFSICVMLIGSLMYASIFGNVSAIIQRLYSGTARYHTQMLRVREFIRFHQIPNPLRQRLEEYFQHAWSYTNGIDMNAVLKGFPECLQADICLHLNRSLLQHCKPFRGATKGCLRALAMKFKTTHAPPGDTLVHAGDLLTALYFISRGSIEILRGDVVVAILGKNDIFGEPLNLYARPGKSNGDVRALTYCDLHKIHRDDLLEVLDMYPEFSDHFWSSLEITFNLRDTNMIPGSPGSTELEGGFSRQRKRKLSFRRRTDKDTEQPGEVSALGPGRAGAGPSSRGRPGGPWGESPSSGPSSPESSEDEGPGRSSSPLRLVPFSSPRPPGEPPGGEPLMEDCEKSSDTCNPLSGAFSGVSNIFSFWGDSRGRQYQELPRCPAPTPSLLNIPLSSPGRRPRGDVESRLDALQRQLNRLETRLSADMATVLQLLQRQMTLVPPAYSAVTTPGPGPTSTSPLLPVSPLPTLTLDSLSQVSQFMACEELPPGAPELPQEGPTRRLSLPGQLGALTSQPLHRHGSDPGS

Row | Structure (SMILES) | hERG current change (%, negative = inhibition) at 10uM
1 | COc1ccc(OC)c(N2CC(O)=C(c3nc4ccccc4s3)C2=N)c1 | -21.3%
2 | Cc1nnc(NC(=O)c2ccc(Br)cc2)s1 | 6.01%
3 | COc1cc(N=C(N)N=C(N)N)cc(OC)c1 | 33.9%
4 | Cc1ccc2c(N)[nH]nc2n1 | 13%
5 | O=C(CNC(=O)c1cccs1)N/N=C/c1ccco1 | 22.4%
6 | Cc1ccc2c(c1)N(CC(=O)NC(C)CCc1ccccc1)C(=O)c1cccnc1O2 (stereo not drawn) | -36%
7 | CCOc1ccc(-n2c(Cc3cc(=O)[nH]c(=O)[nH]3)nnc2SCC(=O)OC)cc1 | 0.603%
8 | O=S(=O)(Nc1ccc(N2CCOCC2)cc1)c1ccc(Cl)s1 | -9.13%
9 | NS(=O)(=O)c1ccc(NC(=O)/C=C/c2ccccc2[N+](=O)[O-])cc1 | 15.9%
10 | CC(=O)c1cccc(Nc2nc(-c3ccccc3)nc3ccccc23)c1.Cl | 26.9%
11 | c1ccc2c(c1)nc(N1CCOCC1)c1ccccc12 | 11.2%
12 | CC(C)OCC(O)Cn1c(N2CCCC2)nc2c1c(=O)[nH]c(=O)n2C (stereo not drawn) | 2.06%
13 | CCN(C(=O)CSc1nnc(C)n1-c1cccc(C)c1)C1CCS(=O)(=O)C1 (stereo not drawn) | 5.87%
14 | CC(C)COc1ccc(S(=O)(=O)NNC(=O)c2cc3ccccc3o2)cc1 | -8.79%
15 | COc1ccc(NC(=O)c2ccc(N3C(=O)C4CC=C(Cl)CC4C3=O)cc2)cc1 (stereo not drawn) | 16.3%
16 | Cc1ccc(Oc2nnc(-c3cccs3)c3ccccc23)cc1 | -0.00742%
17 | COc1ccccc1NC(=O)Nc1ccnn1C1CCN(C(=O)c2cscn2)CC1 | 4.82%
18 | CCc1ccc(NC(=O)C(CC)c2ccccc2)cc1 (stereo not drawn) | 11.5%
19 | Oc1ccccc1C1CC(c2cccs2)=NC(c2cccc(Br)c2)N1 (stereo not drawn) | 13.3%

Row | Structure (SMILES) | hERG current change (%, negative = inhibition) at 10uM
20 | Cc1cc(NC(=O)CSc2nnc(-c3cccnc3)n2C2CCCCC2C)no1 (stereo not drawn) | 3.83%
21 | COc1cc(NC(C)=O)c2ncccc2c1NC(C)=O | 17.8%
22 | COc1ccc(OCC(=O)Nc2ccc(S(=O)(=O)N3CCCCC3)cc2)cc1 | -20.2%
23 | Cc1cc(C)n(-c2ccc(C(=O)N3CCN(c4ccccn4)CC3)cc2)n1 | -32.5%
24 | N#C/C(=C\c1ccc(N2CCOCC2)o1)C(=O)N1CCOCC1 | -1.67%
25 | Cc1cc(NC(=O)CCN2CCCCC2)ccc1Br | -72.8%
26 | CC1CCCCC1NC(=O)C1CCN(C(=O)c2sccc2-n2cccc2)CC1 (stereo not drawn) | -21%
27 | O=C(N/N=C/c1c[nH]c2ccccc12)c1sc2ccccc2c1Cl | 14.3%
28 | Cc1ccc(Cl)c2c1NC(=O)C2(O)CC(=O)c1ccccc1O (stereo not drawn) | 5.71%
29 | CCN(C(=O)COC(=O)c1c(C)c(-c2ccccc2)nc2ccccc12)C1CCS(=O)(=O)C1 (stereo not drawn) | -24.9%
30 | CCc1ccc(CCC(=O)Nc2nnc(CC)s2)o1 | -0.629%
31 | COC(=O)c1ccc(C(C(=O)NC2CCCCC2)N(Cc2ccc(F)cc2)C(=O)Cc2cccs2)cc1 (stereo not drawn) | -9.24%
32 | CN(C)c1ccc(/C=N/NC(=S)NCc2ccccc2)cc1 | 15.3%
33 | COC(=O)c1ccc(NC(c2ccc(Cl)cc2)P(=O)(OC)OC)cc1 (stereo not drawn) | -0.00382%
34 | CN1C(C(=O)Nc2ccc(F)cc2F)=CC(c2cccs2)=NS1(=O)=O | -1.33%
35 | Cc1ccc(S(=O)(=O)NCC(=O)N(CC(=O)NCC2CCCO2)Cc2ccccc2)cc1 (stereo not drawn) | -5.67%
36 | O=C(NCCNC(=O)c1ccc(Cl)cc1Cl)c1ccccn1 | 20.2%
37 | O=C(O)c1ccc(-c2nnn(Cc3cccc(C(F)(F)F)c3)n2)cc1 | -12.3%
38 | COc1ccccc1CNC(=O)C1CCN(S(=O)(=O)c2c(C)noc2C)CC1 | 2.86%

Row | Structure (SMILES) | hERG current change (%, negative = inhibition) at 10uM
39 | COc1ccccc1C(=O)NCC(=O)N/N=C/c1ccncc1 | -2.66%
40 | CC(=O)c1cccc(OCC(=O)N2CCN(c3ccc(C(F)(F)F)cn3)CC2)c1 | -16.3%
41 | CCN(CC)CCCOC(=O)C(OC)(c1ccccc1)c1ccccc1.Cl | -27.9%
42 | COc1cccc(CNS(=O)(=O)c2c(C)[nH]c(C)c2C(=O)N2CCCC2)c1 | -5.06%
43 | Cc1nc2ccc(S(=O)(=O)NC(C(=O)N3CCCCCC3)C(C)C)cc2s1 (stereo not drawn) | -12.4%
44 | O=C(COC(=O)Cc1cccs1)Nc1ccc(F)c(F)c1F | 18%
45 | CS(=O)(=O)c1ccc(N2CCOCC2)c(S(C)(=O)=O)c1 | -5.39%
46 | CCOc1ccc2ccccc2c1/C=N/n1cncn1 | -18.6%
47 | CCCc1nc2ccc(NC(=O)NCCC(=O)OCC)cc2c(=O)n1Cc1ccc(Cl)cc1 | 10.9%
48 | COc1ccc(C(=O)NCCn2cc(SCC(=O)NCC3CCCO3)c3ccccc32)cc1 (stereo not drawn) | -20.3%
49 | CCCN1CCN(CCCNC(=S)Nc2ccc3nc(N4CCN(CC)CC4)cc(C)c3c2)CC1 | 7.49%
50 | Cc1ccc(C(=O)n2nnc3ccccc32)cc1[N+](=O)[O-] | 8.94%
51 | O=C(COc1ccccc1F)Nc1nnc(C2CCCC2)s1 | 17.3%
52 | COc1cccc(C(=O)COC(=O)CCCC(=O)NC2CCCCC2)c1 | 1.29%
53 | COc1ccc(-c2nnc(SCc3nnc(-c4ccccc4)o3)n2-c2ccccc2)cc1 | -9.78%
54 | CCCC(c1nnnn1CCC(C)C)N1CCC(C(N)=O)CC1.Cl (stereo not drawn) | 1.29%
55 | Cc1cccc(Nc2nc(N)c([N+](=O)[O-])c(NCCO)n2)c1 | -33.8%
56 | CCOC(=O)c1cc(C#N)c(Oc2ccccc2OC)nc1-c1ccccc1 | 11.3%
57 | CCCC(C(=O)NCc1ccccc1)N(C(=O)Cn1nnc(-c2cccs2)n1)c1ccc2c(c1)OCCO2 (stereo not drawn) | 17.2%
